Assay results taken from PubChem BioAssay AID1347428 (National Center for Advancing Translational Sciences (NCATS), 2020).
In all, about 91,000 compounds went through this assay and about 290 (0.32%) were called active. The shares of active, inactive and inconclusive entries below differ from those in the screen. Calls come from the whole dose curve; as a rule, active = well fitted inhibition curve with a large enough effect; inconclusive = small, poorly fitted or top-dose-only effect; inactive = no such curve, though single readings can be large or run the other way. Potencies beside an inconclusive call are fits to weak or partial responses and may not hold up.

molecular target: Single-stranded DNA cytosine deaminase (Homo sapiens) (UniProt Q9GZX7); test: Primary qHTS assay for inhibitors of Activation Induced Cytidine Deaminase (AID): AID signal; details: AID deamination FRET fluorescence, UDG-coupled, 4 h; activity change, negative = inhibition: at 115 µM (top of the series); note: nearly all actives have a fitted effect of over 25% in size
Chain of UniProt Q9GZX7 (Q9GZX7 whole entry, looked up): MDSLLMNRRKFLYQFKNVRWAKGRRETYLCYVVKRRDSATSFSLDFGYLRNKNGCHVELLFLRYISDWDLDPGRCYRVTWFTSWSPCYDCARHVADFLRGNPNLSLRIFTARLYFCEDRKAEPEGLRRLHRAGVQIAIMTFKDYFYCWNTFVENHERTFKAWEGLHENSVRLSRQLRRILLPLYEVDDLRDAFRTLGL
% is set by controls: 0 for no effect and ±100 for the full control effect; potency is the fitted concentration of half-maximal effect; tags give direction and shape of the fitted curve.

| Structure (SMILES) | Potency | activity change, negative = inhibition |
| --- | --- | --- |
| Cc1ccc(NC(=O)CSc2nc(=O)n(Cc3ccco3)c3c2CCC3)cc1F | inconclusive: 50.1 µM [inhibitor, partial curve, poor fit] | – |
| CCCCn1cc(S(=O)(=O)c2ccc(C)c(C)c2)c(=O)c2cc(F)c(N(CC)CC)cc21 | inconclusive: 20 µM [inhibitor, full curve] | – |
| CCn1nc(-c2ccccc2)c(-c2ccccc2)c(C(=O)Nc2nc(C)c(C(C)=O)s2)c1=O | inconclusive: 44.7 µM [inhibitor, single point] | – |
| CCN(CC)C(=O)COc1ccc(-c2nnc(Nc3ccc(OC)cc3)c3ccccc23)cc1 | inconclusive: 50.1 µM [inhibitor, partial curve, poor fit] | – |
| Cc1ccc(NC(=O)N2CCN(c3ccc(Cl)c(Cl)c3)CC2)cc1 | inconclusive: 17.8 µM [inhibitor, full curve, poor fit] | – |
| O=C1CSC(c2cccc(Br)c2)N1c1cccc(C(F)(F)F)c1 (centres undefined) | – | inactive: -4.48% |
| COc1ccccc1N1CCN(C(CNC(=O)C(=O)NCc2ccc(F)cc2)c2cccnc2)CC1 (centres undefined) | inconclusive: 79.4 µM [inhibitor, partial curve, poor fit] | – |
| CCOC(=O)C1=C(C)NC(C)=C(C(=O)OC)C1c1cccc([N+](=O)[O-])c1 (centres undefined) | inconclusive: 25.1 µM [inhibitor, full curve] | – |
| Cc1ccc(Cl)cc1N1CCN(c2ncnc3c2nc2n3CCCCC2)CC1 | inconclusive: 39.8 µM [inhibitor, full curve, poor fit] | – |
| Cn1nc(C(=O)NCc2ccccc2Cl)c2c1-c1ccccc1S(=O)(=O)C2 | inconclusive: 50.1 µM [inhibitor, partial curve, poor fit] | – |
| CCN(CC)C(=O)c1cc(C(=O)Nc2ccc(F)c(Cl)c2)n(C)n1 | – | inactive: -1.04% |
| CCc1ccc(C(=O)N2CCC(c3nc(-c4ccc(S(=O)(=O)N5CCCC5)cc4)no3)CC2)cc1 | inconclusive: 50.1 µM [inhibitor, partial curve, poor fit] | – |
| COc1ccc(C(=O)NCc2ccc3c(c2)CCN3C(=O)c2ccc(C)cc2)cc1 | inconclusive: 25.1 µM [inhibitor, partial curve, poor fit] | – |
| COc1ccc(Cn2ccc3nc(C)c(C(=O)N4CCN(c5ccc(OC)cc5)CC4)cc3c2=O)cc1 | inconclusive: 56.2 µM [inhibitor, partial curve, poor fit] | – |
| Cc1ccc(S(=O)(=O)N(C)Cc2nc(-c3ccccc3)oc2C)cc1 | inconclusive: 35.5 µM [inhibitor, full curve, poor fit] | – |
| COc1cccc(N2CCN(C(=O)CCCCCn3c(=O)[nH]c4ccccc4c3=O)CC2)c1 | inconclusive: 22.4 µM [inhibitor, full curve] | – |
| CC(=O)c1ccc(NC(=O)c2nc(-c3ccccc3)n(-c3ccccc3)n2)cc1 | inconclusive: 39.8 µM [inhibitor, full curve, poor fit] | – |
| Cc1cc(OCC(O)CN2CCN(c3cccc(Cl)c3)CC2)ccc1Cl (centres undefined) | inconclusive: 15.8 µM [inhibitor, single point] | – |
| COc1ccc(-c2nc(Cn3c(SCc4cccc(C(F)(F)F)c4)nc4cccnc43)c(C)o2)cc1OC | inconclusive: 22.4 µM [inhibitor, full curve, poor fit] | – |
| COc1ccc(C(=O)c2sc3nc(-c4ccc(F)cc4)ccc3c2N)cc1 | – | inactive: 10.2% |

| Structure (SMILES) | Potency | activity change, negative = inhibition |
| --- | --- | --- |
| O=c1cc(O)c2sc3nc(C45CC6CC(CC(C6)C4)C5)cc(C(F)(F)F)c3c2[nH]1 | inconclusive: 70.8 µM [inhibitor, partial curve, poor fit] | – |
| Cc1cccc(N(CC(=O)NCCSCc2cccc(Cl)c2)S(=O)(=O)c2ccccc2)c1C | inconclusive: 70.8 µM [inhibitor, partial curve, poor fit] | – |
| CCn1ncc2c(C(=O)Nc3ccc(OC(F)F)cc3)cc(-c3cccs3)nc21 | – | inactive: -5.11% |
| COc1ccc(C(C)=O)cc1CSc1nc(NCCc2ccccc2)c2ccccc2n1 | inconclusive: 79.4 µM [inhibitor, partial curve, poor fit] | – |
| CCC(C(=O)NCc1ccc(OC)c(OC)c1)n1nc(C)c2c(C)n(-c3ccc(C)cc3)nc2c1=O (centres undefined) | inconclusive: 44.7 µM [inhibitor, partial curve, poor fit] | – |
| Nc1c(C(=O)Nc2ccccc2F)sc2nc3c(cc12)CCCCCC3 | – | inactive: 14.6% [at 57.5 µM] |
| NC(=S)N/N=C1\CCCCC1c1nccc2ccccc12 (centres undefined) | – | inactive: 5.53% |
| Cc1ccc(CSCCC(=O)NCc2ccc(F)cc2Cl)cc1 | inconclusive: 79.4 µM [inhibitor, single point] | – |
| Cc1cc(C)c2c(c1)C(=O)C(=O)N2CCOc1ccccc1 | inconclusive: 50.1 µM [inhibitor, partial curve, poor fit] | – |
| COc1ccc(-c2nnc(SCC(=O)N(C)C3CCCCC3)o2)cc1OC | – | inactive: -1.34% |
| CCCc1ccc(C(=O)/C=C/c2cc(OC)c(OC)c(OC)c2)cc1 | inconclusive: 17.8 µM [inhibitor, partial curve, poor fit] | – |
| Cc1ccc(N=C2NC(=O)CC(C(=O)Nc3cc(C(F)(F)F)ccc3Cl)S2)cc1 (centres undefined) | – | inactive: -0.695% |
| Nc1ncnc(Nc2ccccc2Cl)c1[N+](=O)[O-] | – | inactive: 5.5% |
| CCn1nc(C)c2c(-c3ccccc3)cc(=O)n(C(C)C(=O)NCCc3ccc(OC)c(OC)c3)c21 (centres undefined) | inconclusive: 31.6 µM [inhibitor, partial curve, poor fit] | – |
| COc1ccc(S(=O)(=O)N(CC(=O)Nc2cc(Cl)ccc2C)Cc2ccccc2)cc1OC | inconclusive: 31.6 µM [inhibitor, full curve, poor fit] | – |
| O=C(CSc1nnc2ccccn12)c1cccc(Cl)c1 | – | inactive: -12% |
| O=Cc1cc(Cc2ccccc2Cl)ccc1O | inconclusive: 44.7 µM [inhibitor, partial curve, poor fit] | – |
| COc1ccc(-c2nn(-c3ccccc3)cc2C2NC(=O)NC(C)=C2C(=O)OC(C)C)cc1Cl (centres undefined) | inconclusive: 79.4 µM [inhibitor, partial curve, poor fit] | – |
| COc1ccc(CC(=O)Oc2ccccc2Br)c(OC)c1 | – | inactive: -1.25% |
